Test results as given in PubChem BioAssay AID488969 (Vanderbilt High Throughput Screening Facility, 2010).
In all, about 110,000 compounds were measured (“z-score”: median about -0.1, highest 2% from about 2 on). Some of the results follow. Active and inactive are the calls of the source.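 How the source made its calls: active means z-score in the third read window above 3 or below -3; inactive means the rest.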

Target: Metabotropic glutamate receptor 8 (Rattus norvegicus) (UniProt P70579)
Assay: mGluR8 Gi/Go-coupled signaling modulation – cell-based, rat, thallium flux, HTS, primary screen (AID 488969)
Conditions: HEK293 rat mGluR8, GIRK (G protein-gated inwardly rectifying potassium channel) thallium flux, FluoZin2; at 10 µM; stronger effect = higher value; submaximal glutamate (EC20) added with thallium

UniProt P70579, sequence (P70579 whole entry, looked up): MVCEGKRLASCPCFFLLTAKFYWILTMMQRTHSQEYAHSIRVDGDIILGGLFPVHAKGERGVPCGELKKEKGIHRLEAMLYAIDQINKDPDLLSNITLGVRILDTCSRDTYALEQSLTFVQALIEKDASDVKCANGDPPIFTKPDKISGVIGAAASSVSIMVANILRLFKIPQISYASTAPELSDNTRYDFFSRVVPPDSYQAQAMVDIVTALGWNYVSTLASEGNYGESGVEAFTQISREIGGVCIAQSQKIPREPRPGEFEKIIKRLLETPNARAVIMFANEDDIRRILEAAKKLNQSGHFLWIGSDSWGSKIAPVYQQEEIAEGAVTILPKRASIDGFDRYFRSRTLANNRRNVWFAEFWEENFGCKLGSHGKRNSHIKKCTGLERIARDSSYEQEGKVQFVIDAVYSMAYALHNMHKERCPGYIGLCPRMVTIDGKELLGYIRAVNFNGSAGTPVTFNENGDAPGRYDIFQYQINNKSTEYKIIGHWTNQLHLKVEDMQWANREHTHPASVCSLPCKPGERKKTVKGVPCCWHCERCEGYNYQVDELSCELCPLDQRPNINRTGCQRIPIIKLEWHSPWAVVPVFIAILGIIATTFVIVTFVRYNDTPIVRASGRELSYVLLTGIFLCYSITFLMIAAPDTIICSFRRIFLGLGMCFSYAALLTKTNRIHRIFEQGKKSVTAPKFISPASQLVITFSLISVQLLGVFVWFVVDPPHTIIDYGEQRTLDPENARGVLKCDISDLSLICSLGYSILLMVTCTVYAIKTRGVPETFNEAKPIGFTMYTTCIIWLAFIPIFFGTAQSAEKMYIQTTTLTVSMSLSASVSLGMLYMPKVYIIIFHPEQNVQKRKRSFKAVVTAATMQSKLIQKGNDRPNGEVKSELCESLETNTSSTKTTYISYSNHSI

SMILES | z-score
Cc1ccc(S(=O)(=O)NC(N)=NCCc2ccccc2)cc1C | 0.045
CC(=O)Nc1ccc(C(=O)CSc2ncn(-c3ccccc3)n2)cc1 | 0.279
O=C(O)C1CCCN1C(=O)Nc1ccc(F)cc1 (stereo not drawn) | -0.0272
Cc1onc(-c2ccccc2)c1C(=O)Nc1sc2c(c1C#N)CCC(C)C2 (stereo not drawn) | 0.289
COc1ccc(CNC(=O)CSc2nc3c(c(=O)n(C)c(=O)n3C)n2C)cc1 | 0.0562
CN(c1ccccc1C(=O)Nc1ccc(S(=O)(=O)N2CCOCC2)cc1)S(C)(=O)=O | 0.219
N#Cc1nc(COc2ccccc2)oc1N1CCN(c2cccc(Cl)c2)CC1 | active: 3.31
Cc1ccc(C(=O)CN2CCC(NC(=O)C3CCCCC3)CC2)cc1 | -0.227
CCOC(=O)N1CCN(C(=O)CN(C)S(=O)(=O)c2ccc3c(c2)C(C)(C)C(=O)N3C)CC1 | -0.193
O=C(/C=C/c1cccc([N+](=O)[O-])c1)NCCSCc1cccc(Cl)c1 | 0.0942
COC(=O)c1ccccc1NC(=O)CN(Cc1ccccc1)S(C)(=O)=O | 1.15
COc1cccc(Sc2ccccc2CN(C)C)c1 | -0.139
O=C(N/N=C/c1cccn1-c1cccc(C(=O)O)c1)Nc1ccccc1 | -0.0979
COC(=O)c1sc2nc[nH]c(=O)c2c1C | 0.0132
C/C(=N/NC(=O)c1ccc(C)s1)c1cccc(NC(=O)COc2ccc(Cl)cc2Cl)c1 | -0.333
Cn1ccs/c1=N\S(=O)(=O)c1ccc(F)cc1 | 0.214
C=CCn1c(SCC(=O)NCc2ccco2)nc2sc3c(c2c1=O)CCCC3 | -0.399
COc1cccc(OCCOc2ccccc2OC(C)C)c1 | -0.186
COc1ccccc1CNC(=O)Cn1cccc1 | 0.415
COc1cc(/C=N/NC(=O)CN2CCCCC2)ccc1OCc1ccc(Br)cc1 | 0.0725
Cc1cccc(NC(=S)N/N=C2/CCCCc3ccccc32)c1 | 0.797
Cc1ccc(-c2nn3c(C)nnc3c3ccccc23)cc1S(=O)(=O)NC(C)c1ccccc1 (stereo not drawn) | -0.192
Cc1ccc(S(=O)(=O)N2CCOCC2)cc1NC(=O)CSc1nccn1C | -0.0832

SMILES | z-score
CCOC(=O)C(C)Sc1ncnc2c1c(-c1ccccc1)cn2-c1ccc(OC)cc1 (stereo not drawn) | -0.642
Cc1cccc(NC(=O)C2CCCN2C(=O)Oc2ccccc2)c1 (stereo not drawn) | -0.133
CCOCCN1CCN(c2c(CC)c(C)nc3cc(-c4cc(OC)cc(OC)c4)nn23)CC1 | -0.938
COC(=O)[C@H](Cc1ccccc1)NC(=O)NCc1ccccc1OC | -0.592
Cc1ccc(NC(=S)NNc2ncc(C(F)(F)F)cc2Cl)c(C)c1 | 2.04
CC1=CC(C)(C)N(C(=O)CSc2nnc(N)s2)c2cc(C)c(C)cc21 | -0.176
COc1ccc2c(c1OC)C(C1c3c(cc4c(c3OC)OCO4)CCN1C)OC2=O (stereo not drawn) | -0.849
O=C(N/N=C/c1cccnc1)c1ccc(NC(=O)C(c2ccccc2)c2ccccc2)cc1 | -0.154
CC1=C(C)/C(=N\OS(=O)(=O)c2ccc(C)cc2)C=CC1=O | -0.581
Nc1nnc(SCc2cccnc2)s1 | -0.161
COc1ccccc1NC(=O)Cc1csc(NC(=S)Nc2ccc(C)cc2)n1 | -0.139
CC1(C)C(C=C(Cl)Cl)C1C(=O)N(Cc1ccc(Cl)cc1)C1CCS(=O)(=O)C1 (stereo not drawn) | 0.0332
Cc1cccc(OCC(=O)NC(=S)Nc2ccc(S(=O)(=O)NC3CCCCC3)cc2)c1 | 0.114
CNC(=S)NNC(=O)COc1ccccc1C | -0.0807
CC(C)n1c(SCC(=O)N2c3ccccc3CCc3ccccc32)nc2c1c(=O)n(C)c(=O)n2C | 0.0246
Cc1cccc(OCCOC(=O)C2CCN(S(=O)(=O)c3cccs3)CC2)c1 | -0.0168
CCOc1cccc(C(=O)Nc2cccc(C(=O)NC(C)(C)C)c2)c1 | -0.278
CCn1cc(C(=O)NCC2CCCO2)c(=O)c2cc(S(=O)(=O)N(C)C3CCCCC3)ccc21 (stereo not drawn) | -0.421
Nc1nc(NCCCN2CCOCC2)nc(Nc2ccccc2)c1[N+](=O)[O-] | -0.165
Nc1nnc(Cc2c[nH]c3ccccc23)s1 | 0.101
COc1ccc(N2C(=O)CNC2=S)cc1 | 0.118
Cn1c(Cc2ccccc2)nnc1SCC(=O)c1ccc(Br)s1 | -0.411
COc1ccccc1-n1cnnc1SCC(=O)N1CC(=O)Nc2ccccc21 | -0.0356

SMILES | z-score
CCc1ccc(NC(=O)c2ccc(F)c(S(=O)(=O)NCC3COc4ccccc4O3)c2)cc1 (stereo not drawn) | -0.151
CCCCSC1=C(C#N)C(c2ccccc2C)CC(=O)N1 (stereo not drawn) | -0.273
O=C(CN1CCCCC1)N1CCCc2ccccc21 | 0.0508
O=C(NCc1cccs1)c1ccccc1F | 0.00442
CCOC(=O)Cn1c(SC)nc2sc3c(c2c1=O)CC(C)(C)OC3 | -0.834
COc1ccc2nc(NC(=O)c3cnccn3)sc2c1 | 1.17
CCCCN1C(=O)CCC(C(=O)O)C1c1ccccc1 (stereo not drawn) | -0.307
Cc1ccc(NCCC(=O)c2ccc(Br)cc2)cc1 | -0.399
Cc1ccc(Nc2n[nH]c(C)c2[N+](=O)[O-])cc1 | -0.101
COc1cccc(-n2c(SCC(=O)Nc3nccs3)nnc2-c2ccoc2C)c1 | -1.42
COc1ccc(C(C)=O)cc1CN1CCCCC1 | -0.25
COc1cccc(C2C(=O)N(C3CCCCC3)CC(=O)N2Cc2ccc(F)cc2)c1 (stereo not drawn) | -1.14
NC(=O)NCc1ccc(Cl)cc1 | 0.027
O=C(CSc1nnnn1-c1ccc(O)cc1)Nc1cccc(S(=O)(=O)N2CCCC2)c1 | active: -4.69
O=S(=O)(c1ccc(Cl)c(F)c1)N1CCC(c2nc(-c3ccncc3)no2)CC1 | active: 8.06
Cc1ccc(C(=O)c2sc(Nc3ccccc3)c(C#N)c2N)cc1 | -0.0679
COc1cccc(CN(C)CC(=O)Nc2cccc(S(N)(=O)=O)c2)c1OC | -0.161
CCC1(C)Cc2c(sc(NC(=O)CCC(=O)O)c2C#N)CO1 (stereo not drawn) | 0.209
CCOc1cc(/C=C(/C#N)c2nc3ccccc3[nH]2)ccc1OCc1ccc(C(=O)O)o1 | -1.53
COc1cccc(-c2nc(CS(=O)CC(=O)NCc3ccc4c(c3)OCO4)c(C)o2)c1 (stereo not drawn) | -0.186
O=C(COC(=O)/C=C/c1ccco1)Nc1ncc(C(F)(F)F)cc1Cl | 0.175
Cc1ccc(C(C[N+](=O)[O-])n2nc(C)cc2C)cc1 (stereo not drawn) | -0.281
COc1ccc(Cl)cc1NC(=O)c1ocnc1C | 0.118

SMILES | z-score
C=CCn1c(SCc2c(C)noc2C)nnc1C1COc2ccccc2O1 (stereo not drawn) | -0.176
Cc1ccc(S(=O)(=O)Nc2cc(C)c(O)c(S(=O)(=O)c3ccc(C)cc3)c2)cc1 | -0.674
CCN(CC)S(=O)(=O)c1cccc(C(=O)NC(C(=O)NC2=NCCS2)C(C)C)c1 (stereo not drawn) | 0.126
COc1cccc(-n2nnc3c(=O)n(CC(=O)N4CCCc5ccccc54)cnc32)c1 | -0.135
Cc1cc(N2CCN(c3ccccn3)CC2)n2cc(-c3ccccc3)nc2n1 | -0.53
CCOC(=O)Cc1csc(NC(=O)CSc2cc(Cl)ccc2Cl)n1 | -0.0845
CCN(C(=O)c1cn(C)c(=O)c2cc(OC)c(OC)cc12)c1cc(C)ccc1C | -0.677
CN(CCOc1ccc(-c2ccn(S(=O)(=O)c3c(Cl)cccc3Cl)n2)cc1)c1ccccn1 | 0.941
O=C1CC(c2ccccc2)Cc2nc(N3CCc4ccccc43)ncc21 (stereo not drawn) | 0.33
O=C(NCCc1ccncc1)Nc1ccccc1Cl | 0.492
CCOC(=O)N1CCC(=NNC(=O)COc2ccc(OC)cc2)CC1 | -0.245
COc1ccc(NC(=O)N2CCN(c3nc(-c4cccc(OC)c4)cs3)CC2)cc1 | -0.31
COC(=O)c1ccc(OCC(O)CN(CCO)CC(O)Cn2ccc3ccccc32)cc1 (stereo not drawn) | 0.0525
CNC(=O)c1ccccc1S(=O)(=O)c1ccccc1C#N | -0.166
O=C(Nc1cc(Cl)ccc1O)C1CCCO1 (stereo not drawn) | 0.609
O=C(Nc1cccc(O)c1)c1noc2c1CCCCC2 | -0.322
Cc1ccc(/C=N/NC(=S)NC2CCS(=O)(=O)C2)cc1 (stereo not drawn) | 0.00866
CC1CCN(S(=O)(=O)c2ccc(Br)s2)CC1 | -0.167
COC(=O)c1ccc(Cl)c(NC(=O)CN2CCOCC2)c1 | 0.185
O=C(NCCCn1ccnc1)c1ccco1 | 0.0341
CC1CCCC(C)N1C(=O)CSc1nnc(COc2ccccc2)n1-c1ccccc1 (stereo not drawn) | -0.853
Cc1nnc(NC(=O)Cn2c(=O)sc3ccccc32)s1 | -0.315
CN(Cc1ccccc1)C(=O)c1ccccc1NC(=O)c1ccccc1 | -0.212

SMILES | z-score
CCOC(=O)C(C)(C)Sc1ncnc2nc[nH]c12 | 0.318
COCCNC(=O)COc1ccc(C)cc1C | -0.299
CCCCOP(=O)(OCCCC)C(O)c1ccc(Br)cc1 (stereo not drawn) | -0.269
O=C(COc1ccccc1)N(Cc1ccco1)c1ccc(O)cc1 | -0.00725
COc1ccccc1C(=O)O/N=C(\N)c1ccccc1Cl | -0.407
CC1(C)Cc2nc3n[nH]c(N)c3cc2CO1 | -0.0792
O=C(CSCc1ccc(Cl)cc1)Nc1ccc2c(c1)OCCO2 | 0.502
Cc1cc2c(NCC(C)O)ncnc2s1 (stereo not drawn) | 0.45
COc1ccc(C(=O)Nc2ccc(S(=O)(=O)NC(C)C)cc2)cc1 | -0.247
COC(=O)CC1=C(C(=O)OC)C(c2cc(OC)c(OC)cc2OC)C(C#N)=C(N)O1 (stereo not drawn) | -0.306
C/C(=N\NC(=O)c1cccc(Br)c1)c1cccc(NC(=O)c2ccc(C)o2)c1 | -0.505
Brc1ccc(-c2cn3ccccc3n2)s1 | -0.391
COC(=O)CC1SC(=O)NC1=Nc1cccc(C)c1 (stereo not drawn) | -0.064
CCOc1ccccc1C(=O)Nc1ccc(S(=O)(=O)N2CCOCC2)cc1 | 0.254
Cn1c(=O)cc(SCC(=O)Nc2cccnc2)c2ccccc21 | 0.331
O=C(COc1ccccc1-c1ccccc1)NCc1cccc(Cl)c1 | -0.16
CC1CN(CCOc2ccc([N+](=O)[O-])cc2)CC(C)O1 (stereo not drawn) | -0.621
O=C(C1CC1)N1CCc2cc(S(=O)(=O)N3CCOCC3)ccc21 | 0.0843
O=C(Nc1ccc(Cl)cc1)N1CCc2[nH]c3ccccc3c2C1 | -0.865
CCn1c(/C=N/c2nc3ccccc3n2C)nc2ccccc21 | -0.0248
O=C(NC1=NCCS1)[C@H](Cc1ccccc1)N1C(=O)c2ccccc2C1=O | -0.192
